Test results from publication PMC12014896 (2025).

The binders below were run against SARS-CoV-2 spike RBD (Wuhan-Hu-1) (Severe acute respiratory syndrome …) (assay: SPR).

Binder | Kd [nM]
COVIC-62 (antibody) QVQLQESGGGLVQAGGSLRLSCAASGRTFSEYAMGWFRQAPGKEREFVATISWSGGSTYYTDSVKGRFTISRDNAKNTVYLQMNSLKPDDTAVYYCAAAGLGTVVSEWDYDYDYWGQGTQVTVSSGGSGGSQVQLQESGGGLVQAGGSLRLSCAASGRTFSEYAMGWFRQAPGKEREFVATISWSGGSTYYTDSVKGRFTISRDNAKNTVYLQMNSLKPDDTAVYYCAAAGLGTVVSEWDYDYDYWGQGTQVTVSSGGGGSGGGGS[omitted - human IgG1 Fc]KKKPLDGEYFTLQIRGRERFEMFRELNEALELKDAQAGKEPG | 63.8
COVIC-320 (antibody) EVQLLESGGGLVQPGGSLRLSCAASGRTFSEYAMGWFRQAPGKGLEFVSTISWSGGSTYYADSVKGRFTISRDNSKNTLYLQMNSLRAEDTAVYYCAAAGLGTVVSEWDYDYDYWGQGTLVTVSSGGSGGSEVQLLESGGGLVQPGGSLRLSCAASGRTFSEYAMGWFRQAPGKGLEFVSTISWSGGSTYYADSVKGRFTISRDNSKNTLYLQMNSLRAEDTAVYYCAAAGLGTVVSEWDYDYDYWGQGTLVTVSSGGGGSGGGGS[omitted - human IgG1 Fc]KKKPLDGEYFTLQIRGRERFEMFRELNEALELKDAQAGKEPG | 30.7
COVIC-315 (antibody) EVQLLESGGGLVQPGGSLRLSCAASGRTFSEYAMGWFRQAPGKGLEFVSTISWSGGSTYYADSVKGRFTISRDNSKNTLYLQMNSLRAEDTAVYYCAAAGLGTVVSEWDYDYDYWGQGTLVTVSSGGSGGSEVQLLESGGGLVQPGGSLRLSCAASGRTFSEYAMGWFRQAPGKGLEFVSTISWSGGSTYYADSVKGRFTISRDNSKNTLYLQMNSLRAEDTAVYYCAAAGLGTVVSEWDYDYDYWGQGTLVTVSSGGGGSGGGGS[omitted - human IgG1 Fc]KKKPLDGEYFTLQIRGRERFEMFRELNEALELKDAQAGKEPGGGGGSGGGGSEVQLLESGGGLVQPGGSLRLSCAASGRTFSEYAMGWFRQAPGKGLEFVSTISWSGGSTYYADSVKGRFTISRDNSKNTLYLQMNSLRAEDTAVYYCAAAGLGTVVSEWDYDYDYWGQGTLVTVSS | 44.5
COVIC-6 (antibody) SRNGGDGNFMLTQPHSVSESPGKTVTISCTRSSGSIASNYVQWYQQRPGSAPTTVIYEDNQRPSGVPDRFSGSIDSSSNSASLTISGLKTEDEADYYCQSYDAHNVVFGTGTKVTVSSQTGGSGGGGSGGGGSGGGGS[omitted - about 100 residues]GTYFGSVHMYAFDIWGQGTMVTVSSS | 87.1
COVIC-316 (antibody) EVQLLESGGGLVQPGGSLRLSCAASGRTFSEYAMGWFRQAPGKGLEFVSTISWSGGSTYYADSVKGRFTISRDNSKNTLYLQMNSLRAEDTAVYYCAAAGLGTVVSEWDYDYDYWGQGTLVTVSSGGSGGSEVQLLESGGGLVQPGGSLRLSCAASGRTFSEYAMGWFRQAPGKGLEFVSTISWSGGSTYYADSVKGRFTISRDNSKNTLYLQMNSLRAEDTAVYYCAAAGLGTVVSEWDYDYDYWGQGTLVTVSSGGGGSGGGGS[omitted - human IgG1 Fc]KKKPLDGEYFTLQIRGRERFEMFRELNEALELKDAQAGKEPGGGGGSGGGGSEVQLLESGGGLVQPGGSLRLSCAASGRTFSEYAMGWFRQAPGKGLEFVSTISWSGGSTYYADSVKGRFTISRDNSKNTLYLQMNSLRAEDTAVYYCAAAGLGTVVSEWDYDYDYWGQGTLVTVSSGGSGGSEVQLLESGGGLVQPGGSLRLSCAASGRTFSEYAMGWFRQAPGKGLEFVSTISWSGGSTYYADSVKGRFTISRDNSKNTLYLQMNSLRAEDTAVYYCAAAGLGTVVSEWDYDYDYWGQGTLVTVSS | 34.1
COVIC-73 (antibody) [omitted - about 100 residues]SVYYGSGAFDIWGQGTMVTVSSGGGGSQSVLTQPPSVSVSPGQTASITCSGDSLGSKYACWYQQKPGQSPVLVIYQDSKRPSGIPERFSGSNSGNTATLTISGTQAMDEADYYCQAWDPHWTVVFGTGTKVTVSSS | 24.9
COVIC-371 (antibody) EVQLVESGGGLVQPGGSLRLSCAASGFTFSPSWMGWFRQAPGKEREFVATINEYGGRNYADSVKGRFTISADNSKNTAYLQMNSLKPEDTAVYYCARVDRDFDYWGQGTLVTVSSGGGGS[omitted - human IgG1 Fc with C220S (EU numbers)]GGGSGGGGSASEVQLVESGGGLVQPGGSLRLSCAASGSTFSINAMGWFRQAPGKEREFVAGITSSGGYTNYADSVKGRFTISADNSKNTAYLQMNSLKPEDTAVYYCAADGVPEYSDYASGPVWGQGTLVTVSSEVQLVESGGGLVQPGGSLRLSCAASGSTFSINAMGWFRQAPGKEREFVAGITSSGGYTNYADSVKGRFTISADNSKNTAYLQMNSLKPEDTAVYYCAADGVPEYSDYASGPVWGQGTLVTVSS | 1.17
COVIC-314 (antibody) EVQLLESGGGLVQPGGSLRLSCAASGRTFSEYAMGWFRQAPGKGLEFVSTISWSGGSTYYADSVKGRFTISRDNSKNTLYLQMNSLRAEDTAVYYCAAAGLGTVVSEWDYDYDYWGQGTLVTVSSGGSGGSEVQLLESGGGLVQPGGSLRLSCAASGRTFSEYAMGWFRQAPGKGLEFVSTISWSGGSTYYADSVKGRFTISRDNSKNTLYLQMNSLRAEDTAVYYCAAAGLGTVVSEWDYDYDYWGQGTLVTVSSGGSGGSEVQLLESGGGLVQPGGSLRLSCAASGRTFSEYAMGWFRQAPGKGLEFVSTISWSGGSTYYADSVKGRFTISRDNSKNTLYLQMNSLRAEDTAVYYCAAAGLGTVVSEWDYDYDYWGQGTLVTVSSGGGGSGGGGS[omitted - human IgG1 Fc]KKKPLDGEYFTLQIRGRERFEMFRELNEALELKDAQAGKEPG | 22.8
COVIC-370 (antibody) EVQLVESGGGLVQPGGSLRLSCAASGSTFSINAMGWFRQAPGKEREFVAGITSSGGYTNYADSVKGRFTISADNSKNTAYLQMNSLKPEDTAVYYCAADGVPEYSDYASGPVWGQGTLVTVSSGGGGSGGGGSASEVQLVESGGGLVQPGGSLRLSCAASGFTFSPSWMGWFRQAPGKEREFVATINEYGGRNYADSVKGRFTISADNSKNTAYLQMNSLKPEDTAVYYCARVDRDFDYWGQGTLVTVSSGGGGS[omitted - human IgG1 Fc with C220S (EU numbers)] | 0.116
COVIC-318 (antibody) SLDQINVTFLDLEYEMKKLEEAIKKLEESYIDLKELGSGSG[omitted - human IgG1 Fc]KKKPLDGEYFTLQIRGRERFEMFRELNEALELKDAQAGKEPGGGGGSGGGGSEVQLLESGGGLVQPGGSLRLSCAASGRTFSEYAMGWFRQAPGKGLEFVSTISWSGGSTYYADSVKGRFTISRDNSKNTLYLQMNSLRAEDTAVYYCAAAGLGTVVSEWDYDYDYWGQGTLVTVSS | 58.7
COVIC-319 (antibody) SLDQINVTFLDLEYEMKKLEEAIKKLEESYIDLKELGSGSG[omitted - human IgG1 Fc]KKKPLDGEYFTLQIRGRERFEMFRELNEALELKDAQAGKEPGGGGGSGGGGSEVQLLESGGGLVQPGGSLRLSCAASGRTFSEYAMGWFRQAPGKGLEFVSTISWSGGSTYYADSVKGRFTISRDNSKNTLYLQMNSLRAEDTAVYYCAAAGLGTVVSEWDYDYDYWGQGTLVTVSSGGSGGSEVQLLESGGGLVQPGGSLRLSCAASGRTFSEYAMGWFRQAPGKGLEFVSTISWSGGSTYYADSVKGRFTISRDNSKNTLYLQMNSLRAEDTAVYYCAAAGLGTVVSEWDYDYDYWGQGTLVTVSS | 30.9
COVIC-7 (antibody) SRNGGDGQSVLTQPPSVSVSPGQTASITCSGDSLGSKYACWYQQKPGQSPVLVIYQDSKRPSGIPERFSGSNSGNTATLTISGTQAMDEADYYCQAWDPHWTVVFGTGTKVTVSSQTGGSGGGGSGGGGSGGGGS[omitted - about 100 residues]SVYYGSGAFDIWGQGTMVTVSSS | 17.2
COVIC-8 (antibody) SRNGGDGNFMLTQPHSVSESPGKTVTISCTRSSGSIASNYVQWYQQRPGSAPTTVIYEDNQRPSGVPDRFSGSIDSSSNSASLTISGLKTEDEADYYCQSYDTHTMQVVFGTGTKVTVSSQTGGSGGGGSGGGGSGGGGS[omitted - about 100 residues]ATHFSSSDIFAFDIWGQGTMVTVSSSS | 23.6
COVIC-65 (antibody) QVQLQESGGGLVQAGGSLRLSCAASGRTFSEYAMGWFRQAPGKEREFVATISWSGGSTYYTDSVKGRFTISRDNAKNTVYLQMNSLKPDDTAVYYCAAAGLGTVVSEWDYDYDYWGQGTQVTVSSGGSGGSQVQLQESGGGLVQAGGSLRLSCVASGSIFSINAMDWYRQAPGKQRELVAGITSGGSTNYGDFVKGRFTISRDNAKNTVYLQMDSLKPEDTAVYYCAAEVGGWGPPRPDYWGHGTQVTVSSGGGGSGGGGS[omitted - human IgG1 Fc]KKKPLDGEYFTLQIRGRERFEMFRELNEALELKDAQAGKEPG | 51
